Source: PubChem BioAssay AID492947 (National Center for Advancing Translational Sciences (NCATS), 2010)
About 80 (0.02%) of roughly 330,000 compounds were called active. Inconclusive means that the source gave no clear call. Such entries were picked first, then a sample of the others. Calls come from the whole dose curve; as a rule, active = well fitted activation curve with a large enough effect; inconclusive = small, poorly fitted or top-dose-only effect; inactive = flat fitted curve, though single readings scatter. Potencies of inconclusive entries are left out as doubtful fits.

target: Beta-2 adrenergic receptor (Homo sapiens) (UniProt P07550); assay: qHTS assay of beta-arrestin-biased ligands of beta2-adrenergic receptor; details: beta-arrestin recruitment to beta2AR, cell-based reporter; series mostly up to 46.1 µM; activation: at the top concentration; note: nearly all actives have a fitted effect of over 65% in size;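 for activation: 0% = DMSO controls and full agonism = EC100 isoproterenol or metaproterenol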
Method in brief: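 Compound series up to 46 microM applied to beta2-AR/beta-arrestin Tango cells, 18 hr, 37 degrees C, 5% CO2. Read-out: tTA-driven luciferase luminescence, converted to %Activity; concentration-response curves assigned curve classes.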
Potency is the fitted concentration of half-maximal effect; tags give direction and shape of the fitted curve.

Chain of UniProt P07550 (P07550 whole entry, looked up): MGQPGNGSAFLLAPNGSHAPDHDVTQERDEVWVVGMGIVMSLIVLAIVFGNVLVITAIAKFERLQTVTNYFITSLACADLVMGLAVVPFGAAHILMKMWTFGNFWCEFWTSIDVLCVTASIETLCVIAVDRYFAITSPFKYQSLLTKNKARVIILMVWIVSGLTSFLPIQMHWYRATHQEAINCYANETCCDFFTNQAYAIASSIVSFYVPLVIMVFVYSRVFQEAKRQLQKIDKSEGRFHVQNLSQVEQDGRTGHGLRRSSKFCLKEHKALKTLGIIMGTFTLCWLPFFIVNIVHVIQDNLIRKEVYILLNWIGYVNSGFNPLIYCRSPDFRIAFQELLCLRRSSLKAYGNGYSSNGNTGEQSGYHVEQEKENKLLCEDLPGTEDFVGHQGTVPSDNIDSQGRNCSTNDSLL

SMILES | Potency | activation
CCC(NC(=O)NNC(N)=S)(C(F)(F)F)C(F)(F)F | inconclusive [rising, single point] | 
Clc1cccc(Cl)c1C1Nc2cccc3cccc(c23)N1 | inconclusive [rising, full curve, poor fit] | 
CCOCCc1c(O)nc(SC)[nH]c1=O | inconclusive [rising, single point] | 
O=C(Cn1ncc(Cl)c(Cl)c1=O)N1CCN(Cc2ccccc2)CC1 |  | inactive: -0.114%
Cc1nn(-c2ccccc2)c(-n2cccc2)c1C(=O)O | inconclusive [rising, single point] | 
O=C(N/N=C/C(Br)=C/c1ccccc1)c1cnccn1 | inconclusive [rising, single point] | 
Cc1ccc(S(=O)(=O)/C=C2\NC(=O)CS2)cc1 |  | inactive: 3.28%
O=C(O)COc1c(Cl)cc(/C=C2\NC(=O)NC2=O)cc1Br |  | inactive: -0.47%
Cc1cc(Oc2ccc(=O)n(C)n2)nc(SCCOc2ccccc2)n1 |  | inactive: -0.363%
Cc1cc2ncn(-c3ncnc4scc(-c5ccccc5)c34)c2cc1C |  | inactive: -1.44%
O=C(CSc1cccc[n+]1[O-])c1ccc(Cl)s1 | inconclusive [rising, single point] | 
O=C(N/N=C/c1cccs1)c1cncc(Br)c1 | inconclusive [rising, single point] | 
CC(C)OC(=O)C(CC(=O)O)NCc1ccccc1 (centres undefined) |  | inactive: -0.432%
C/C(=N\NC(=S)NCCc1ccccc1)c1cccs1 | inconclusive [rising, single point] | 
COc1ccc(NC(=S)N/N=C/c2ccc(F)c(F)c2)cc1 | inconclusive [rising, single point] | 
Cn1c(SCC(=O)N/N=C/c2ccc([N+](=O)[O-])s2)nnc1-c1ccccc1 | inconclusive [rising, single point] | 
NC(=S)N=Nc1c(O)n(Cc2ccc(F)cc2)c2ccccc12 | active: 9.2 µM | 
c1cncc(-c2nnc(-c3cccnc3)nn2)c1 |  | inactive: -0.099%
CCN(CC)c1ccc(/C=N/Nc2nn[nH]n2)cc1 | inconclusive [rising, single point] | 
COCCNC(=S)NN=C1CCCCCC1 | inconclusive [rising, single point] | 
OCC1(CC2CCCCO2)CCN(Cc2nc3ccccc3[nH]2)CC1 (centres undefined) |  | inactive: 0.369%
Cc1nc2ccccc2nc(C)c1=NOCc1ccc(C#N)cc1 | inconclusive [rising, single point] | 
CCCCNC(=S)NNC(=O)CCn1nc(C)c(Br)c1C | inconclusive [rising, single point] | 
O=C(/C=C/c1ccc(-c2ccccc2[N+](=O)[O-])o1)c1ccc(F)cc1 |  | inactive: -0.874%
COc1ccc(NC(=O)CSc2nncn2C)cc1 | inconclusive [rising, full curve, poor fit] | 
CCn1c(=S)[nH]c2cc(C(=O)OC)ccc2c1=O |  | inactive: -0.231%
Cc1ccc(CNc2ccc(O)cc2)cc1 | inconclusive [rising, single point] | 

SMILES | Potency | activation
O=c1[nH]nc(CNc2ccc(O)cc2)c2ccccc12 | inconclusive [rising, single point] | 
CCN(CC)S(=O)(=O)c1ccc(NS(=O)(=O)c2ccc(F)cc2)cc1 | inconclusive [rising, single point] | 
CC(C)(NC(=O)NC(CO)c1ccccc1)c1cccc(C(C)(C)NC(=O)NC(CO)c2ccccc2)c1 (centres undefined) | active: 6.51 µM | 
Cc1nc2ccc(NC(=O)CS(=O)(=O)c3ccccc3)cc2s1 | inconclusive [activator, partial curve] | 
CC(=O)c1cccc(NC(=S)NC2CCCCCCC2)c1 |  | inactive: 0.291%
NC(=S)N/N=C/c1ccccc1OC(=O)/C=C/c1ccccc1 | inconclusive [rising, single point] | 
CC(=O)NNc1ncnc2ccccc12 |  | inactive: -0.574%
COc1ccc(C(=O)Nc2ccccc2N2CCN(C(=O)c3ccccc3)CC2)cc1Br |  | inactive: -0.207%
O=C(CC(=O)Nc1ccccc1[N+](=O)[O-])Nc1ccccc1[N+](=O)[O-] |  | inactive: -0.271%
O=C(Oc1c(-c2ccccc2)c(=O)n2c3c(cccc13)CC2)c1ccccc1 | inconclusive [rising, single point] | 
COc1ccc(OCC(=O)OCC(=O)NCc2ccco2)cc1 |  | inactive: 0.0549%
Cn1c(CN2CCN(CCO)CC2)c(C#N)c2ccccc21 |  | inactive: 0.119%
CC1(C)OC(=O)C(=NNc2ccc(Br)cc2)C(=O)O1 | inconclusive [rising, single point] | 
CCC1=NN(C(=O)COc2ccccc2)C(O)(c2ccncc2)C1 (centres undefined) |  | inactive: 0.329%
O=C(NC(=S)Nc1ccccc1Br)C1CCC1 |  | inactive: 1.05%
CC[C@]1(C(=O)OC)[C@H]2C(=O)N(Cc3ccccc3)C(=O)[C@H]2[C@H]2CN(C)C(=NCc3ccccc3)N21 | inconclusive [rising, single point] | 
O=c1[nH]c2ccccc2nc1/C=C/c1ccccc1 |  | inactive: -0.714%
CN(C)/C=C/C(=O)c1ccc(F)cc1 | inconclusive [rising, single point] | 
CN=C(c1ccc(C)cc1)n1c(=S)nc(-c2ccc(C)cc2)n(C)c1=S | inconclusive [rising, single point] | 
CCCCNCCCOc1cccc(Cl)c1Cl |  | inactive: 0.157%
CC12CCC(=O)N1C(C(=O)Nc1cccc(S(=O)(=O)N3CCCCCC3)c1)CS2 (centres undefined) |  | inactive: -0.127%
COc1cccc(C(=O)N/N=C/C(Br)=C/c2ccccc2)c1 | inconclusive [rising, single point] | 
CCOC(=O)CCCc1ccc(/C(C)=N/NC(N)=S)cc1 | inconclusive [rising, single point] | 
N#C/C(=C(/O)CCl)c1nnc2n1CCCCC2 |  | inactive: -0.172%
Cc1ccn(C(=O)c2cc3c(C)nn(-c4ccccc4)c3s2)n1 |  | inactive: -0.0119%
O=C(NCc1cccc(Cl)c1)c1ccc(S(=O)(=O)Nc2cccc(C(F)(F)F)c2)cc1 | inconclusive [rising, single point] | 
Cc1cc(C)c2sc(N(CCCN(C)C)C(=O)c3ccc(S(=O)(=O)N4CCc5ccccc5C4)cc3)nc2c1 | inconclusive [activator, partial curve] | 

SMILES | Potency | activation
COc1cccc([C@@H]2Oc3ccc(Br)cc3C(=O)[C@H]2OC(=O)NC2CCCC2)c1 | inconclusive [rising, single point] | 
COc1cc(C(=O)Oc2c(CN3CCOCC3)cc(Cl)c3cccnc23)cc(OC)c1OC | active: 3.55 µM | 
C=CCNC(=S)N/N=C/c1cccc([N+](=O)[O-])c1 | inconclusive [rising, single point] | 
CCOC(=O)c1nn(-c2ccc(OCC)cc2)c2nc(CC(C)C)c(C#N)c(=O)n12 |  | inactive: 0.194%
CCOC(=O)N1CCN(C(=O)CS(=O)(=O)Cc2nc(-c3ccccc3C)oc2C)CC1 | inconclusive [rising, single point] | 
Nc1nc(CN2CCN(c3cccc(Cl)c3)CC2)nc(N2CCCc3ccccc32)n1 |  | inactive: 0.0673%
CC1(C)C(=O)N(CCN2CCC(C(=O)c3ccc(F)cc3)CC2)c2ccccc21 |  | inactive: 0.418%
CC1=C(C(=O)Nc2cccc(C(=O)NC3CCCC(C)C3C)c2)SCCO1 (centres undefined) | inconclusive [rising, single point] | 
Cc1ccc(C2=NOC(C)(c3nnc(-c4ccc(F)cc4)o3)C2)cc1 (centres undefined) | inconclusive [rising, single point] | 
O=C(NN/C(=N/S(=O)(=O)c1ccc(Cl)cc1)c1ccccc1)c1cccc(Cl)c1 |  | inactive: -0.159%
CCCCS/C(N)=N/N=C/c1cc(C)ccc1O | inconclusive [rising, single point] | 
Cc1ccc(-c2c(C(=O)N/N=C/c3cccc(Cl)c3)nnn2-c2nonc2N)cc1 |  | inactive: -0.285%
CC1(C)Cc2ccccc2-c2n[nH]c(=S)n21 | inconclusive [rising, single point] | 
CC1CC(C)(C)N(C(=O)CN2CCN(C)CC2)c2ccccc21 (centres undefined) | inconclusive [rising, single point] | 
C(=N\Nc1nc2ccccc2[nH]1)/c1ccc2c(c1)OCCO2 |  | inactive: -0.882%
CC1C/C(=N\NC(N)=S)c2cc(Cl)ccc2S1 (centres undefined) | active: 6.31 µM | 
C=CCC(CC(O)COCCC)C(=O)NNC(=S)Nc1ccccc1 (centres undefined) | inconclusive [activator, full curve] | 
Oc1c(C(c2ccccn2)N2CCOCC2)ccc2cccnc12 (centres undefined) | inconclusive [rising, single point] | 
CC1CCC2C(=O)N(c3ccc(C(=O)Oc4cccc5cccnc45)cc3)C(=O)C2C1 (centres undefined) | inconclusive [rising, single point] | 
COc1cc(/C=C2/SC(=S)N(Cc3ccccc3)C2=O)ccc1OS(C)(=O)=O |  | inactive: -0.287%
CN(C)c1ccc(N=Cc2nc(-c3ccccc3)oc2OC(=O)c2cccc(Cl)c2)cc1 | inconclusive [rising, single point] | 
N#Cc1cccc2c1-c1ccccc1/C2=N/NC(N)=S | inconclusive [rising, single point] | 
O=[N+]([O-])c1ccc2c(c1)N([O-])C1(CCCCC1)[N+]2=O | inconclusive [rising, single point] | 
CCNC(=S)N/N=C/c1cccs1 | inconclusive [rising, single point] | 
CCCc1nc2ccccc2c(C(=O)OCC(=O)NCc2ccc3c(c2)OCO3)c1CC | inconclusive [rising, single point] | 
